The list shows a part of the results. Measured with an extract: partners may take part in the binding.

The assay has as its target T1, FLI1 (endogenous, THP-1 nuclear extract) (UniProt Q01543).
T1 sequence: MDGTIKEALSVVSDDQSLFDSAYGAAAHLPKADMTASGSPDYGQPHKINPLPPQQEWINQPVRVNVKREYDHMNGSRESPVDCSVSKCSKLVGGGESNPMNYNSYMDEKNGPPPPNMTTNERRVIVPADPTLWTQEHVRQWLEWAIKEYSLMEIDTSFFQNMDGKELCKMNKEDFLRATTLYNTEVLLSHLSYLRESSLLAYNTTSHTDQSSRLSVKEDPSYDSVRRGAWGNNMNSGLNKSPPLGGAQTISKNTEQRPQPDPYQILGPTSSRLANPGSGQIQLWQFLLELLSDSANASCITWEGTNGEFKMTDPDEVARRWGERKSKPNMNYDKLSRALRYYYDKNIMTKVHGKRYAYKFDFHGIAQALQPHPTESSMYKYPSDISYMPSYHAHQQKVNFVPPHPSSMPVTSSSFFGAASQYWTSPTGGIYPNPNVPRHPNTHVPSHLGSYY
In words: nuclear extract protein-binding microarray (nextPBM). The note with it: 20 mM HEPES pH 7.9, 100 mM NaCl, 1 mM DTT, 0.2 mg/mL BSA, 0.02% Triton X-100, 2% milk, 0.4 mg/mL salmon testes DNA; 1 h; temperature not stated; high values mean tight binding; double strand, one strand shown; sequences stand for … in GCCTAGCAC…GTGCTAGGTCTTGATTCGCTTGACGCTGCTG
GATAAGAGGAAGCCCTCTGT: the binding signal is 1.53 z-score. The same measure for AGAAGAAGGAAGTGGGATTT: 2.39 z-score; for CCAAGGAGGAAGTGAGGCCT: 2.93 z-score.

On to AGGAAGAGGAAGTGCTGGGG, for which the binding signal was determined as 3.72 z-score. Sequence GGTATGAGGAACTGGATTCC displayed a binding signal of 1.04 z-score.

Regarding GAAAACACGAAGTCCCATAG, the binding signal was 0.537 z-score. TGAATGAGGAACTGCGTTTC yielded a binding signal of 1.27 z-score. The same measure for AAATGGAGGAAGTGGCTATA: 2.59 z-score; for AGAAAGAGGAAGTCTCTGCC: 3.7 z-score; for AAGAAGAGGAAGAGGCGTGA: 1.03 z-score. As for CAAATGACGAACTGATGCGG, the figure is 0.0726 z-score; as for TAAATGAGGAAGTGTGCTGT, 3.8 z-score; as for AAAAAGGGGAAGTTGGGGAT, 3.68 z-score. For the sequence CCCAAAAGGAAGTGAAGTTG, the binding signal stood at 2.78 z-score. As for TGAAAGAGGAAATGCAACCA, the figure is 2.74 z-score; as for ACTTAAAGGAAGTGGGAAAA, 2.15 z-score; as for TAGGAGAGGAAGTGAGAGAA, 2.77 z-score. GAAAACAGAAAGTCCCATAG came in with a binding signal of 0.33 z-score. The sequence AGAAAGAGGAAGTCGAGGTG came in with a binding signal of 4.03 z-score. In the case of AGAATGAGGAAGTGGCATTT, the binding signal amounted to 4.4 z-score. The same measure for TGGAAGAGGAAGTGCAACCA: 3.74 z-score; for CGGAGGAGGAAGTGTCTGTT: 3.02 z-score; for GGTAAGAGGAAGTCCTTGTC: 2.82 z-score. As for TTATGAAGGAAGTGAAATTG, the figure is 1.96 z-score; as for CAAGGAAGGAAGTGGACCAG, 2.07 z-score; as for ACAAAAAGGTACTGTGCCCC, -0.672 z-score. As for GAAAAAGGGAAGTGACATCA, the figure is 2.98 z-score; as for TGAAAGAGGAAGAGCAACCA, 1.73 z-score.

The sequence ACAAAAAGAAACTGTGCCCC gave a binding signal of -0.526 z-score. The same measure for AGAATGAGGAAGTCTCTTCT: 3.02 z-score; for TCAGTGAGGAAGTGAGATAA: 2.21 z-score; for TTAAAGGGGAAGTGTTTGTT: 3.01 z-score. The same measure for GGATAGAGGAAGTCCCCTGT: 2.97 z-score.

Values taken from publication PMC6451091.
